Experimental data from PubChem BioAssay AID504339 (National Center for Advancing Translational Sciences (NCATS), 2011).
Several values for one entry are separate records, joined by “and”; a condition that tells them apart may be missing. Equal entries are not always repeated. Among all 390,000 compounds or so, about 17,000 (4.4%) were called active. Inconclusive results, whose numbers are uncertain, are shown with a selection of clear calls. Calls follow the shape of the dose curve; as a rule, active = well fitted inhibition curve with a large enough effect; inconclusive = small, poorly fitted or top-dose-only effect; inactive = no such curve, though single readings can be large or run the other way. Potencies of inconclusive entries are doubtful fits and often do not repeat.

molecular target: Lysine-specific demethylase 4A (Homo sapiens) (UniProt O75164); assay: qHTS Assay for Inhibitors of JMJD2A-Tudor Domain; settings: AlphaScreen JMJD2A-Tudor / H3K4me3 peptide binding; activity change, negative = inhibition: at 114 µM (top of the series); also: nearly all actives have a fitted effect of over 50% in size
% is scaled to controls: 0 for no effect and ±100 for the full control effect; potency is read from the fitted curve at half-maximal effect; tags tell the direction and shape of the fitted curve.

UniProt O75164, sequence (O75164 whole entry, looked up, the tested form may be a part): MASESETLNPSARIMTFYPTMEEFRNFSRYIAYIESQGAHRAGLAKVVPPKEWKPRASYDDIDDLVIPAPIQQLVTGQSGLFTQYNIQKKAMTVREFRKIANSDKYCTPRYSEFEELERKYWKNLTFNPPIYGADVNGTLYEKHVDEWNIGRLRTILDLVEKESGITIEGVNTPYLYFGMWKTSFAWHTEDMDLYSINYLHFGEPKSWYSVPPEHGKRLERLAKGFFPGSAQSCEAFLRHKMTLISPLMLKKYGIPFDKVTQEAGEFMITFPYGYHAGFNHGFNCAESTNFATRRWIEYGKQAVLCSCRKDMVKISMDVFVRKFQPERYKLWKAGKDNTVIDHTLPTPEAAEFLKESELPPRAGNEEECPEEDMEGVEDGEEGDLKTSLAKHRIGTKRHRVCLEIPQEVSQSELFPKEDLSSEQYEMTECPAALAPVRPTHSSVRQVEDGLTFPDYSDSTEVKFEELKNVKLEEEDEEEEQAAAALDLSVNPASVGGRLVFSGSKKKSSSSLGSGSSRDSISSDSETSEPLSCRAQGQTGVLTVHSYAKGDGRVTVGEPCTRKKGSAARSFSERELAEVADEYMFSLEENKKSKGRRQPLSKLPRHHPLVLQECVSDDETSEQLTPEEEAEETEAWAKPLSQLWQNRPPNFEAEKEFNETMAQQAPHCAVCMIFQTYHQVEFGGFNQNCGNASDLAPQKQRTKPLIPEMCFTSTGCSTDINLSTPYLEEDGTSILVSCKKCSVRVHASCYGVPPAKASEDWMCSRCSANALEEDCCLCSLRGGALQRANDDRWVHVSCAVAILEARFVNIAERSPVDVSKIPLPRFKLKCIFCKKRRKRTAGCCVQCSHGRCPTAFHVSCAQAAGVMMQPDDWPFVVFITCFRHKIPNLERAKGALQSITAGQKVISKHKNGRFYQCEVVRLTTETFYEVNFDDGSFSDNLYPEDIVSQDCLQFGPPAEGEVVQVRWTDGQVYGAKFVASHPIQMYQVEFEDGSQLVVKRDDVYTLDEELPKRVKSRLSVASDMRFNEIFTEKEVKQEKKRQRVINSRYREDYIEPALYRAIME

Potency, inactive:
COc1ccc(/C=C2\NC(=S)N(CC3CCCO3)C2=O)c(OC)c1C (configuration not stated)
Cc1ccc(CSc2nnc(NC(=O)C3COc4ccccc4O3)s2)cc1 (configuration not stated)
CCOC(=O)CCCCC(=O)c1[nH]c(=O)[nH]c1C[n+]1ccc(C)cc1
C=Cc1ccc(CSc2nc(-c3ccc(OC)cc3)nc3c2Cc2c(CO)cnc(C)c2O3)cc1
CN(C(=O)CCNC(=O)Cn1cnc2ccccc2c1=O)c1ccccc1F
CC(C)C[C@H](NC(=O)c1[nH]cnc1C(=O)N[C@@H](C)c1ccccc1)C(=O)OC(C)(C)C
CN(/N=C/c1cccnc1)c1cnc2ccccc2n1
CCOc1ccc(S(=O)(=O)N=C(c2ccccc2)N2CCOCC2)cc1
Cc1cc(C)n2cc(CSc3nc4ccccc4[nH]3)nc2n1
CC1CN(C(C)C)C(=S)N(c2ccccc2)C1=O (configuration not stated)
Cc1cc(-n2nc3ccccc3n2)c(O)c([N+](=O)[O-])c1
COc1ccc2oc(=O)c(C(=O)N3c4ccccc4CC3C)cc2c1 (configuration not stated)
Cc1ccc(C)c(SCC(=O)Nc2oc(C)c3c(C)n[nH]c(=O)c23)c1
CCOC(=O)c1cc(-c2ccccc2)n(CC(=O)NCc2ccccc2OC)c1C
CC(Sc1ncn[nH]1)C(=O)c1c(N)n(C)c(=O)n(C)c1=O (configuration not stated)
CCN1C/C(=C/c2ccc(N3CCOCC3)cc2)C(=O)/C(=C/c2ccc(N3CCOCC3)cc2)C1

Potency, inconclusive:
Nc1sc(-c2ccccc2)c(Cc2ccccc2)c1C(=O)O 56.2 µM [inhibitor, partial curve]
CCCCC(CC)Cn1c(O)c(/C=C2\C=NN=C2c2ccccc2)sc1=S (configuration not stated) 14.1 µM [inhibitor, full curve]
Cc1ccc(-n2c(C)cc(C(=O)COC(=O)c3ccc[nH]c3=O)c2C)cc1C 39.8 µM [inhibitor, single point]
CSc1cccc(NC(=S)Nc2cc(C)ccc2C)c1 100 µM [inhibitor, partial curve]
Cc1ccc(Nc2c(-c3ccc(C)cc3)nc3cnccn23)cc1 56.2 µM [inhibitor, partial curve]
COC(=O)c1ccc(N2NC(=O)/C(=C/c3cc(OC)c(O)c(OC)c3)C2=O)cc1 56.2 µM [inhibitor, partial curve]
COc1cc(C)cc(CN2CCC(Cc3ccccc3)CC2)c1O 44.7 µM [inhibitor, partial curve]
C/C(=N\NC(=S)Nc1c(C)cccc1C)c1ccc(OC(F)F)cc1 20 µM [inhibitor, full curve]
CC(=O)C1C(=O)CC(c2ccc(Cl)cc2)CC1=O (configuration not stated) 31.6 µM [inhibitor, partial curve]
O=P(c1ccccc1)(c1ccccc1)C(O)c1ccccn1 (configuration not stated) 5.01 µM [inhibitor, full curve]
COCCCN1C(=O)C(=O)/C(=C(/O)c2ccc(OC)cc2C)C1c1cccnc1 (configuration not stated) 28.2 µM [inhibitor, partial curve]
C=CCN=c1sc(C(=O)OC)cc(=O)n1CC=C 20 µM [inhibitor, single point]
Cc1ccc2ccc(C(Nc3ccccn3)c3ccccc3)c(O)c2n1 (configuration not stated) 11.2 µM [inhibitor, full curve] and 20 µM [inhibitor, full curve]
O=C(Nn1c(O)c(C=C2N=c3ccccc3=N2)sc1=S)c1ccccc1Cl 50.1 µM [inhibitor, partial curve]
Cc1cc(N2CCOCC2)nc2ccc(NC(=S)N3CCCCC3C)cc12 (configuration not stated) 89.1 µM [inhibitor, single point]
CCOC(=O)CN1C(=O)C(Sc2n[nH]c(-c3ccc(C)cc3)n2)CCc2ccccc21 (configuration not stated) 56.2 µM [inhibitor, partial curve]
N#C/C(=C\c1ccc(N2CCOCC2)o1)c1ccccc1 56.2 µM [inhibitor, partial curve, poor fit]
Cc1ccc(CNC(=O)N[C@@H](Cc2ccccc2)C(=O)O)cc1 89.1 µM [inhibitor, single point]
C[n+]1ccc(C(=O)Nc2ccccc2Cl)cc1 39.8 µM [inhibitor, single point]
CCCCCCN1N=C(C)C(C(=O)c2ccc(Cl)cc2)C1=O (configuration not stated) 22.4 µM [inhibitor, full curve]
CCc1ccc(C(=O)c2cn(CC(=O)Nc3ccc(F)cc3)c3cc4c(cc3c2=O)OCO4)cc1 15.8 µM [inhibitor, full curve]
Cc1nnc(SCC2=C(C(=O)O)N3C(=O)C(NC(=O)COc4ccccc4)C3SC2)s1 (configuration not stated) 15.8 µM [inhibitor, partial curve, poor fit]
Cn1cccc1-c1nc2ccccc2n1C 63.1 µM [inhibitor, partial curve, poor fit]
CCOc1ccccc1C1c2[nH]c3ccccc3c2C[C@H]2C(=O)N(C3CCN(Cc4ccccc4)CC3)CC(=O)N12 (some centres not stated) 5.01 µM [inhibitor, full curve, poor fit]
COc1ccc(-n2ccnc2SCC(=O)Nc2ccc(OC)cc2OC)cc1 50.1 µM [inhibitor, partial curve]
COc1cccc(/C=C/C(=O)Nc2ccc(N3CCOCC3)cc2)c1OC 15.8 µM [inhibitor, single point]
CCNC(=O)CC1C(=O)N(c2ccc(OC)cc2)C(=O)N1Cc1ccc(OC)cc1 (configuration not stated) 25.1 µM [inhibitor, single point]
Cc1ccc(CN2CCN(/N=C/c3ccco3)CC2)c(C)c1 2.51 µM [inhibitor, full curve]
OC(COc1cccc2ccccc12)CN1CCN(c2ccc(Cl)cc2)CC1 (configuration not stated) 31.6 µM [inhibitor, partial curve]
CCOC(=O)c1cccc(-c2c(-c3ccccc3)ncc3cc(OC)c(OC)cc23)c1 44.7 µM [inhibitor, full curve, poor fit]
CCN(CC)c1ccc(NC(=O)c2cccc(OC)c2)c(C)c1 7.94 µM [inhibitor, full curve, poor fit]
CN(C)CCCN(C(=O)c1ccc(S(=O)(=O)N2CCCCC2)cc1)c1nc2cc3c(cc2s1)OCO3 44.7 µM [inhibitor, partial curve]
CCN(CC)CCCCN1c2ccccc2Sc2ccccc21 7.08 µM [inhibitor, partial curve]
Cc1cc(/C=C2\NC(=O)NC2=O)c(C)n1-c1ccc(N2CCOCC2)cc1 56.2 µM [inhibitor, partial curve]
COc1cccc(NC(=O)COC(=O)/C=C/c2ccco2)c1 89.1 µM [inhibitor, partial curve]
CCc1ccc(NC(=O)Nc2cc(C(=O)NCC3CCCO3)ccc2N2CC3CC(C2)c2cccc(=O)n2C3)cc1 (configuration not stated) 28.2 µM [inhibitor, full curve]
O=C(c1ccc(N2CCCCC2)c([N+](=O)[O-])c1)N1CCN(S(=O)(=O)c2ccccc2)CC1 31.6 µM [inhibitor, full curve]
Cc1ccc(C(=O)NCC(c2ccco2)N2CCc3ccccc32)cc1C (configuration not stated) 50.1 µM [inhibitor, partial curve]

Potency, active:
CCn1c(CCNC(=O)c2ccc(Cl)cc2)n[nH]c1=S 10 µM
Cc1nnc(NC(=O)c2nc(S(=O)(=O)Cc3ccccc3)ncc2Cl)s1 31.6 µM
CCN(CC)C(=S)SSC(=S)N(CC)CC 79.4 µM
Cc1cccc(NCc2ccc(N(C)C)cc2)n1 50.1 µM
COc1ccccc1/C=C/C=N/n1c(-c2ccncc2)n[nH]c1=S 10 µM
CC(NC(=O)c1ccco1)C(=O)Nc1nc(-c2ccccn2)cs1 (configuration not stated) 44.7 µM
C/C=C/c1ccc(OCCN2CCc3ccccc3C2)c(OC)c1 0.891 µM
Cc1ccc(S(=O)(=O)c2nc(-c3ccccc3Cl)oc2N2CCN(C)CC2)cc1 50.1 µM
Cc1ccc(NNC(=S)Nc2ccc(C(C)C)cc2)c(C)c1 14.1 µM
Nc1nc(=S)c2ncn(C3OC(CO)C(O)C3O)c2[nH]1 (configuration not stated) 7.94 µM
COc1cccc(CN2CCN(C(=O)CC(C)C)CC2)c1 5.62 µM
NC(=O)c1ccccc1NC(=S)NC(=O)CCc1ccccc1 79.4 µM
Cc1cc(C)c2c(=O)n(CC(=O)NC3CCCC3)sc2n1 2.24 µM
COc1cc(OC)c2c(-c3ccccc3)cc(=O)oc2c1C(CCN1CCCC(C)C1)c1ccc(N(C)C)cc1 (configuration not stated) 11.2 µM
O=[N+]([O-])c1ccc(Cl)c(CN2CCC(O)CC2)c1 10 µM
Cc1cccc(C(=O)NNS(=O)(=O)c2ccc(F)cc2)c1O 2 µM

Activity change, negative = inhibition, inconclusive:
COc1cccc(NC(=O)CN(C)C(=O)c2ccc3[nH]c4c(c3c2)CC(C)CC4)c1 (configuration not stated) -57.2% [inhibitor]
COc1ccc(NCC(O)Cn2c(C)c(C)c3ccccc32)cc1 (configuration not stated) -86.6% [inhibitor]
